About 2,200 (0.71%) of roughly 310,000 compounds showed an effect of 50% or more. The effect is printed as a negative number. The list shows a part of the results.
Each compound was assayed against human ether-à-go-go-related gene (hERG) potassium channel (human, UniProt Q12809) (assay: primary screen, population patch clamp on CHO cells stably expressing hERG).
Chain of human ether-à-go-go-related gene (hERG) potassium channel (Q12809 whole entry, looked up): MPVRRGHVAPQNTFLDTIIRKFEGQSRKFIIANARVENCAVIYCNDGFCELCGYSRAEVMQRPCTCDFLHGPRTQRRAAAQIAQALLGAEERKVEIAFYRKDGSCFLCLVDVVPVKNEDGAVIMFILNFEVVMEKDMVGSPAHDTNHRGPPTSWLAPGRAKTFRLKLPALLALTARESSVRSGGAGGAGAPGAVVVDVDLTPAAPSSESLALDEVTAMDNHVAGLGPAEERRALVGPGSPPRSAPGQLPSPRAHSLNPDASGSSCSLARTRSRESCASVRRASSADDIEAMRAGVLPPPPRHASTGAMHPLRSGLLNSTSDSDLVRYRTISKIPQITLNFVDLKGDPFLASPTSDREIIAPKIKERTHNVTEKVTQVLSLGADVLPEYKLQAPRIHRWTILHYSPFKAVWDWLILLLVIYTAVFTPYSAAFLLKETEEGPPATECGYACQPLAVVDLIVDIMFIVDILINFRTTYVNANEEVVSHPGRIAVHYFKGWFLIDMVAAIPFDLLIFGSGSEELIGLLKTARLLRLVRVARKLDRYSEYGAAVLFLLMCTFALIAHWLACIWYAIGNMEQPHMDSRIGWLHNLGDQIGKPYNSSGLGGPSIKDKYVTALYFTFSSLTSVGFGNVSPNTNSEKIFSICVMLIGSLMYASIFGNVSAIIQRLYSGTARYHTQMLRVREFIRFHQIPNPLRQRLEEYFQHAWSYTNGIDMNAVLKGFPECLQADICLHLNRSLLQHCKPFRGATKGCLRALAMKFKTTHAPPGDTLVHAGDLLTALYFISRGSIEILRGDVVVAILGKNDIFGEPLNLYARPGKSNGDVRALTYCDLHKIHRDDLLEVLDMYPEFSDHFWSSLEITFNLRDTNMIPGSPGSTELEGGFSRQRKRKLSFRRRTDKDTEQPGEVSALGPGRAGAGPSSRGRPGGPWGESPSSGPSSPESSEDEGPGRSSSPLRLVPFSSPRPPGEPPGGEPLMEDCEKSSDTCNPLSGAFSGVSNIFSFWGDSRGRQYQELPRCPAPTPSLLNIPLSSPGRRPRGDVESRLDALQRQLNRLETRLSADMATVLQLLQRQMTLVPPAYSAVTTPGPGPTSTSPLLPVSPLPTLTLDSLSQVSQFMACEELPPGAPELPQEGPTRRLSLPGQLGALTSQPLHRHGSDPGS

Compound | hERG current change (%, negative = inhibition) at 1uM
CN1CCN(CCCNC(=O)c2ccc(CSCc3cccc(Cl)c3)o2)CC1 | 1.54%
COc1cc(/C=N/Nc2ccnc(=O)[nH]2)ccc1O | 11.3%
COc1ccc(OC)c(NC(=O)c2cc(-c3cc(C)c(C)cc3O)n[nH]2)c1 | 17.2%
O=C1CCC(C(=O)N2CCC(CO)CC2)CN1Cc1ccc(Cl)cc1 (centres unmarked) | 10.2%
CCOCCn1c(COc2ccccc2)nc2ccccc21 | -13.9%
CN(Cc1ccco1)C(=O)c1ccc(N2CCCC2=O)cc1 | 16.8%
COc1ccc(S(=O)(=O)N2CCCCCC2)cc1C(=O)N(CC(C)C)C1CCS(=O)(=O)C1 (centres unmarked) | 6.16%
COc1ccc(OC)c(/C(O)=C/C(=O)C(=O)Nc2cc(C)ccc2OC)c1 | 15.4%
COc1ccc(C)cc1NC(=O)CCN1CC(C)OC(C)C1.Cl (centres unmarked) | 13.4%
CCS(=O)(=O)Nc1c(C(=O)O)[nH]c2ccccc12 | -14.3%
CC(Cc1ccccc1)NC(=O)c1cc([N+](=O)[O-])ccc1Cl (centres unmarked) | 7.31%
Cc1ccc(S(=O)(=O)N2CCC(C(=O)NNC(=O)c3ccccc3O)CC2)cc1 | 8.01%
CCCN(CCC)S(=O)(=O)c1cccc(C(=O)N=c2sccn2C)c1 | 14.1%
O=C(CCc1nc2ccccc2[nH]1)N1CCN(C(=O)c2ccco2)CC1 | 9.26%
CSC(=Nc1ccccc1)C1=C(O)COC1=O | 11.4%
COc1ccccc1NC(=O)COC(=O)c1ccc(N2CCCC2=O)cc1 | 8.92%
Cc1ccc(-n2c(SCC(N)=O)nc3c(oc4ccccc43)c2=O)cc1 | 14.1%
Cl.c1ccc(CCNCc2ccccc2)cc1 | 8.02%
Cc1ccc(OCCNC(=O)/C=C/c2ccccc2)cc1C | 1.58%

Compound | hERG current change (%, negative = inhibition) at 1uM
COc1ccccc1CNC(=O)[C@@H]1CCCN1C(=O)C1CCN(S(=O)(=O)c2ccc(C)cc2)CC1 | 1.74%
Cc1ccc(C(=O)Nn2c(C)nc3ccccc3c2=O)cc1C | 19%
Cc1ccc(S(=O)(=O)N2CCCC(C(=O)NCC3COCCO3)C2)cc1 (centres unmarked) | -1.6%
COCC1CCCN(Cc2cn(-c3ccccc3F)nc2-c2cc(C)sc2C)C1 (centres unmarked) | 11.8%
CC(NC(=O)c1ccccc1F)c1nnc(SCC(=O)Nc2nnc(C3CC3)s2)n1C (centres unmarked) | 6.39%
CC(Sc1nnc(C2CC2)n1C1CC1)C(=O)N(C)C1(C#N)CCCCC1 (centres unmarked) | -1.07%
Cc1ccccc1N1C(=S)NC2c3ccccc3OC1(C)C2C(=O)N(C)C (centres unmarked) | -11.5%
C/C(=N\NC(=O)C(C)n1nc(C)c([N+](=O)[O-])c1C)c1ccccc1O (centres unmarked) | 12.1%
Cc1cc(O)c2c(CN3CCN(Cc4ccccc4)CC3)cc(=O)oc2c1 | 5.08%
O=C1[C@H]2C(c3ccccc3)=NN(c3ccccc3)[C@H]2C(=O)N1c1ccccc1 | 13%
CCCCn1c(NC(C)=O)c(C#N)c2nc3ccccc3nc21 | 14.9%
COc1ccc(-n2c(COc3ccc(Cl)cc3)nnc2SCc2ccc(C#N)cc2)cc1 | 11.9%
CC(C)CC1Nc2ncnc(N3CCN(c4ccccc4)CC3)c2N(Cc2ccc(Br)cc2)C1=O.O=C(O)C(F)(F)F (centres unmarked) | 4.64%
Cn1c(C(=O)NCCN2CCOCC2)cc2c(=O)n(C)c3ccccc3c21 | 3.05%
COc1ccc(Cn2ccnc2SCC(=O)Nc2nnc(C)s2)cc1 | 9.92%
O=C1CC(c2ccc(F)cc2)CC2=C1C=Nc1ccccc1N2 (centres unmarked) | -21.5%
CSc1nc(N)nc(SCC(=O)CC(=O)OC(C)C)c1C#N | 5.48%
O=C(CCOc1ccccc1)N1CCN(c2ccc(O)cc2)CC1 | -1.99%
O=C(COC(=O)c1cc(=O)c2ccccc2o1)NC1CCCC1 | 15.6%

Compound | hERG current change (%, negative = inhibition) at 1uM
COC(=O)c1cc(CN2CCN(c3ccccc3)CC2)ccc1O.Cl | 9.4%
CCCC(=O)Nc1c2c(nn1-c1ccc(C)cc1C)CSC2 | -4.3%
COCCNc1oc(-c2ccc(F)cc2)nc1C#N | 9.01%
CCC(=O)N1CCc2cc(Br)cc(S(=O)(=O)CCC(=O)NCCc3ccccc3)c21 | 8.05%
Cc1nn(-c2ccccc2)c(Cl)c1/C=N/NC(=O)CNC(=O)c1ccccc1Cl | 3.32%
COc1cc(C2=NOC(C(=O)Nc3ccc(C)cc3)C2)cc(OC)c1OC (centres unmarked) | 7.87%
O=c1c2ccccc2nc2n1CCN2 | 16.1%
O=C(CCN1CCN(C(=O)c2ccco2)CC1)Nc1ccc(F)cc1 | 4.91%
O=C(CN1CCCC1)Nc1sc2c(c1C(=O)Nc1ccc(Br)cc1)CCC2 | -0.806%
O=C(CC1CCCCC1)Nc1c2c(nn1-c1ccc(F)cc1)CS(=O)(=O)C2 | 0.272%
Cc1ccc(C)c(NC(=O)Cn2c(=O)n(-c3ccc(CC(=O)NCC4CCCO4)cc3)c(=O)c3ccccc32)c1 (centres unmarked) | 13.1%
CCOCCn1c(CN2CCN(c3ccc(OC)cc3)CC2)nc2c1c(=O)n(C)c(=O)n2C | -11.1%
Cc1ccc(NC(=O)c2cn(-c3cccc(C)n3)cn2)cc1 | 1.38%
CCCCn1c(N)c(Sc2ccccc2[N+](=O)[O-])c(=O)[nH]c1=O | 23.3%
O=C(CSc1nnnn1-c1ccccc1)N1CCCc2ccccc21 | 9.7%
O=C(NNS(=O)(=O)Cc1ccccc1)c1ccc([N+](=O)[O-])cc1 | 3.38%
COc1ccc(N2CCN(C(=O)c3ccc(N4C(=O)NC5CC4(C)Oc4ccccc45)cc3)CC2)cc1 (centres unmarked) | 9.87%
CCC(NC(=O)Cc1c(C)c2cc3c(cc2oc1=O)OC(C)(C)CC3)C(=O)O (centres unmarked) | 13.7%

Reference: paper PMC4336329 (PLoS ONE, 2015)
